Data published in PubChem BioAssay AID463173 (ICCB-Longwood Screening Facility, Harvard Medical School, 2010).
About 4,300 (8.3%) of roughly 52,000 compounds were called active. No stated cut-off is given here; in the data, active means survival mostly below about 52% (no sharp cut-off); inactive means mostly above about 56%. The list shows a part of the results.

System: DeltatarO mutant
Assay: S. aureus survival, RN4220 and DeltatarO strains – OD600, teichoic acid synthesis inhibitors, primary screen (AID 463173)
Conditions: S. aureus RN4220 wild type/DeltatarO growth, OD600, 18 h, active compounds read low, screened at 18.75 µg/mL (by protocol)

Structure (SMILES) | survival
Cc1ccc(NC(=O)c2c(C)oc3ccc(O)c(CN4CCCCC4)c23)cc1 | inactive: 75%
COc1ccc(NC(=O)c2cc(S(=O)(=O)N3CCCCC3)c[nH]2)cc1Cl | inactive: 69%
Cc1cc(C)c(/C=C/c2onc(C)c2S(=O)(=O)N2CCC(C(=O)NCC(C)c3ccccc3)CC2)c(C)c1 (centres undefined) | inactive: 115%
Cc1cc(NC(=O)CC(C)C)cc(-c2nc3ncccc3o2)c1O | inactive: 90%
CC1CCN(C(=O)c2ccccc2NC(=O)c2nsc3ccccc23)CC1 | inactive: 124%
COCCn1c(SCc2ccncc2)nc2ccccc2c1=O | inactive: 85%
COc1ccccc1N1CCN(C(=O)c2nc(-c3ccc(C)cc3)n3c2CCCCC3)CC1 | inactive: 76%
CCOc1ccc(-c2cc(NC(=O)c3c(F)cccc3F)c(C(=O)OC)s2)cc1 | inactive: 77%
COc1ccc(C2C(=O)N(C3CCCCCC3)CC(=O)N2CCc2ccccc2)cc1 (centres undefined) | inactive: 118%
Cc1ccc(CNC(C)c2ccccc2)s1 (centres undefined) | inactive: 75%
CC(C)(C)OC(=O)N1CCC(c2c(C(=O)Nc3ccc4c(c3)OCCO4)cnn2-c2ccc(F)cc2)CC1 | inactive: 89%
O=C(NCCc1ccccc1)c1ccc2c(c1)N(Cc1ccccc1)C(=O)c1ccccc1S2=O (centres undefined) | inactive: 70%
Cc1cccc(-c2nc3c(cnn3-c3ccccc3)c(=O)n2-c2cccc(Cl)c2)c1 | active: 44%
Cc1ccc(C(CC(=O)NCC2(c3ccccc3)CCCC2)c2ccccc2)c(O)c1 (centres undefined) | inactive: 101%
Cc1ccc(CCNC(=O)CN2C(=O)COc3ccc(S(=O)(=O)N4CCCCC4)cc32)cc1 | inactive: 78%
Cc1ccc(Nc2nnc(-c3ccc(C)c(S(=O)(=O)N4CCCCC4)c3)c3ccccc23)cc1 | inactive: 109%
CCOc1ccc2c(c1)[C@@H]1C=CC[C@@H]1[C@H](c1ccccc1Cl)N2 | active: -10%
CC(=O)Nc1cc(C(=O)NCc2ccc(F)cc2)ccc1Sc1ccc(C)cc1 | inactive: 94%
CCOC(=O)CC(NC(=O)Cn1nnc(-c2ccc(C(F)(F)F)cc2)n1)c1ccccc1Cl (centres undefined) | inactive: 73%
COc1ccc(C)cc1NC(=O)c1cc2c(s1)-c1ccccc1SC2 | inactive: 71%
Cc1nn(-c2ccccc2)c(-n2cccc2)c1C(=O)NCc1ccccc1Cl | active: 2%
CC1CCN(S(=O)(=O)c2ccc3ncn(CC(=O)Nc4ccccc4C(F)(F)F)c(=O)c3c2)CC1 | inactive: 62%
Cc1cc(OCC(=O)Nc2cnn(CCCC(=O)O)c2)ccc1Cl | inactive: 59%

Structure (SMILES) | survival
O=C1CN(C(=O)c2ccc(Cl)cc2Cl)C(c2ccc(F)cc2)c2cc(F)ccc2N1 (centres undefined) | inactive: 65%
CCOC(=O)C1CCN(C(=O)CSc2n[nH]c(-c3ccccc3Cl)n2)CC1 | inactive: 77%
CN(C)c1ccc(CNC(=O)c2cc3ccccn3n2)cc1 | inactive: 55%
Cc1ccc(C)c(NC(=O)CCCN2C(=O)COc3ccc(C)cc32)c1 | inactive: 120%
Cc1cc(C)cc(NC(=O)CSc2nnc(COc3ccccc3Cl)o2)c1 | active: 12%
CCN(CC)S(=O)(=O)c1ccc2c(c1)c(=O)c(C(=O)N(C)Cc1ccccc1)cn2C | inactive: 80%
CC(C)(C)OC(=O)N1CCC(c2c(C(=O)Nc3cccc(C(F)(F)F)c3)cnn2-c2ccc(F)cc2F)CC1 | inactive: 61%
CC(=O)Nc1nonc1-c1nnc(SCc2ccc(F)cc2Cl)n1C | inactive: 45%
Cc1cc(C)cc(NC(=O)c2sc3nc(-c4ccccc4)cn3c2C)c1 | inactive: 116%
COc1ccc(NC(=O)c2cc(-c3ccc4c(c3)OCO4)on2)c(OC)c1 | inactive: 71%
CCOC(=O)c1cccc(NC(=O)CCS(=O)(=O)c2ccc(Br)s2)c1 | inactive: 71%
Cc1ccc(NC(=O)CN2Cc3ccccc3C2=O)c(C)c1 | inactive: 89%
Cn1c(=O)c2c(nc(SCC(=O)Nc3ccc(F)cc3F)n2Cc2ccccc2)n(C)c1=O | inactive: 135%
COc1ccc(/C=C/C(=O)Nc2ccc3nc(N4CCC(C)CC4)cc(C)c3c2)cc1OC | inactive: 51%
CC1(C(=O)NC2CCCCC2)Cc2ccccc2C(=O)N1Cc1ccc(Cl)cc1 (centres undefined) | inactive: 92%
COc1cccc(C2C(C(=O)Nc3ccc(Cl)cc3)=C(C)Nc3c(C(=O)Nc4ccccc4)cnn32)c1OC (centres undefined) | inactive: 71%
O=C(CN(Cc1ccccc1F)C(=O)c1ccco1)NCc1ccc(F)cc1 | inactive: 97%
CCOc1ccc(CNC(=O)CN2C(=O)CCn3nc(-c4cn(C)c5ccccc45)cc32)cc1OC | active: -4%
CCCn1c2ccccc2c2cnn(CC(=O)Nc3cccc(C(=O)OCC)c3)c(=O)c21 | inactive: 73%
O=C(NCc1cccs1)c1nn(-c2ccccc2)nc1CO | inactive: 84%
Cc1ccc(NC(=O)Cn2c(=O)n(-c3ccc(C)cc3)c(=O)c3ccc(C(=O)NCc4ccccc4Cl)cc32)cc1 | inactive: 74%
Cc1ccc(S(=O)(=O)c2nc(-c3ccco3)oc2SC(C)C)cc1 | inactive: 47%
C=CCSc1nsc(N)n1 | inactive: 75%

Structure (SMILES) | survival
Cc1cc(=O)n(Cc2cccc(Br)c2)c2c1c(C)nn2-c1ccccc1 | inactive: 95%
Cc1cc(Cl)ccc1NS(=O)(=O)c1ccc2c(c1)CCN2S(C)(=O)=O | inactive: 96%
Cc1cccc(CNC(=O)Cc2csc3ccccc23)c1 | inactive: 111%
CCOc1cc(/C=C2\SC(=S)N(CCCC(=O)O)C2=O)ccc1O | inactive: 62%
COc1ccc(S(=O)(=O)N2CCN(Cc3nc4ccc(C)cc4o3)CC2)cc1OC | inactive: 84%
CCOC(=O)C1CCN(c2cc3c(cc2NC(=O)c2ccc(OC)c(OC)c2)n(C)c(=O)n3C)CC1 | inactive: 58%
CC1CCCCN1S(=O)(=O)c1ccc(F)c(C(=O)Nc2ccccc2C(F)(F)F)c1 (centres undefined) | inactive: 89%
CCCNC(=O)NC1CC(C)(C)NC(C)(C)C1 | inactive: 80%
CCC(C)NC(=O)Cn1c(=O)n(CCCC(=O)NCc2ccc(C)cc2)c(=O)c2ccccc21 (centres undefined) | inactive: 94%
Cc1cn2c(=O)cc(COc3cc(C)c(Cl)c(C)c3)nc2s1 | inactive: 141%
CCCOC(=O)c1cc(=O)[nH]c2ccccc12 | inactive: 74%
Cc1ccc(NC(=O)CSc2nc3c(oc4ccccc43)c(=O)n2Cc2ccco2)cc1 | inactive: 70%
CCCn1c(=O)c2sccc2n2c(CCCC(=O)N3CCN(c4cccc(C)c4C)CC3)nnc12 | inactive: 78%
CCc1ccccc1NC(=O)C1COc2ccccc2C1 (centres undefined) | inactive: 92%
Cn1cnc(S(=O)(=O)N2CCC(C(=O)N3CCN(c4ccc(Cl)cc4)CC3)CC2)c1 | active: 37%
N#C/C(=C\c1ccccc1)C(=O)Nc1sc2c(c1C(N)=O)CCC2 | inactive: 59%
CC(C)Oc1ccc(CNC(=O)c2cnc3sc(N4CCCCC4)nn3c2=O)cc1 | inactive: 124%
COc1cc2c(-c3ccc(C)cc3)nc3c(c(C)nn3-c3ccccc3)c2cc1OC | inactive: 72%
Cc1cc(C)cc(OCC(=O)Nc2ccc(Cl)c(-c3nc4ncccc4o3)c2)c1 | inactive: 94%
CCc1ccc(Sc2cc(C(=O)NCCCOC(C)C)c3ccccc3n2)cc1 | inactive: 76%
CC(=O)Nc1ccc(-n2c(CCC(=O)O)ccc2-c2ccc(C)cc2)cc1 | inactive: 56%
O=C(Cc1cccs1)NC1CCN(Cc2ccccc2)CC1 | inactive: 86%
CCc1ccc(-c2cn3c(n2)sc2cc(C(=O)NCC(C)c4ccccc4)ccc23)cc1 (centres undefined) | inactive: 69%

Structure (SMILES) | survival
Cc1nc2c(C(=O)NCCc3ccc(Cl)cc3)c[nH]n2c(=O)c1Cc1ccccc1F | active: -12%
CCc1ccc(N2CCn3c2nc2c3c(=O)n(Cc3c(F)cccc3Cl)c(=O)n2C)cc1 | inactive: 87%
CCOC(=O)C1CCCN(S(=O)(=O)c2ccc(Cl)cc2)C1 (centres undefined) | inactive: 95%
Cc1nnc2c(N3CCN(c4ccccc4)CC3)nc3ccc(C(=O)c4ccccc4)cc3n12 | inactive: 80%
CN(C(=O)Nc1ccccc1)C12CC3CC(CC(C3)C1)C2 | inactive: 70%
CC(=O)N(Cc1cccnc1)c1nc2c(C)cccc2s1 | inactive: 77%
Cn1cc(-c2cc3n(n2)CCC(=O)N3CCCC(=O)Nc2ccc(F)cc2F)c2ccccc21 | inactive: 128%
Cc1cc(C)cc(-n2ccnc2SCC(=O)Nc2ccc3c(c2)OCO3)c1 | inactive: 74%
Cc1cc2nc(-c3ccc(Br)cc3)cc(C(F)(F)F)n2n1 | active: 37%
COc1cc(C(c2nnnn2C2CCCCC2)N2CCc3ccccc3C2)ccc1O (centres undefined) | inactive: 62%
COc1ccc(CCn2c(=O)c3cccnc3n(CC(=O)Nc3cccc(C)c3)c2=O)cc1OC | inactive: 81%
CCOC(=O)C1CCN(C(=O)Cn2nc(C)n3c(cc4cc(C)ccc43)c2=O)CC1 | inactive: 84%
COc1ccc(S(=O)(=O)NCc2ccc3c(c2)CCN3C(=O)c2ccc(C)cc2)cc1Cl | inactive: 112%
Cc1c(CNCCc2ccc(S(N)(=O)=O)cc2)c(C(=O)O)c(C)n1Cc1ccc(Cl)cc1 | inactive: 105%
CCCCOC(=O)c1ccc(Nc2nc3ccccc3c3nnc(C)n23)cc1 | active: 25%
CC(=NCc1cccnc1)c1c(C)[nH]n(-c2nc3ccccc3s2)c1=O | inactive: 103%
CCOc1ccc(/C=C(\C#N)C(=O)Nc2sc3c(c2C(=O)OC)C(C(=O)OC)CC3)cc1OC (centres undefined) | inactive: 60%
O=C(C1CC1)N1CCc2cc(Br)cc(S(=O)(=O)N3CCN(c4ccccc4)CC3)c21 | inactive: 68%
CCc1ccc(NS(=O)(=O)c2ccc(C(=O)N(C)C)s2)cc1 | inactive: 72%
Cn1c(=O)c2sccc2n2c(CCC(=O)N3CCN(c4cccc(Cl)c4)CC3)nnc12 | inactive: 193%
